# In all, about 310,000 compounds went through this assay and about 2,200 (0.71%) showed an effect of 50% or more. Effects have a minus sign here. The list shows a part of the results.
# Target: human ether-à-go-go-related gene (hERG) potassium channel (human, UniProt Q12809)
# Assay: primary screen, population patch clamp on CHO cells stably expressing hERG
# Sequence of human ether-à-go-go-related gene (hERG) potassium channel (Q12809 whole entry, looked up): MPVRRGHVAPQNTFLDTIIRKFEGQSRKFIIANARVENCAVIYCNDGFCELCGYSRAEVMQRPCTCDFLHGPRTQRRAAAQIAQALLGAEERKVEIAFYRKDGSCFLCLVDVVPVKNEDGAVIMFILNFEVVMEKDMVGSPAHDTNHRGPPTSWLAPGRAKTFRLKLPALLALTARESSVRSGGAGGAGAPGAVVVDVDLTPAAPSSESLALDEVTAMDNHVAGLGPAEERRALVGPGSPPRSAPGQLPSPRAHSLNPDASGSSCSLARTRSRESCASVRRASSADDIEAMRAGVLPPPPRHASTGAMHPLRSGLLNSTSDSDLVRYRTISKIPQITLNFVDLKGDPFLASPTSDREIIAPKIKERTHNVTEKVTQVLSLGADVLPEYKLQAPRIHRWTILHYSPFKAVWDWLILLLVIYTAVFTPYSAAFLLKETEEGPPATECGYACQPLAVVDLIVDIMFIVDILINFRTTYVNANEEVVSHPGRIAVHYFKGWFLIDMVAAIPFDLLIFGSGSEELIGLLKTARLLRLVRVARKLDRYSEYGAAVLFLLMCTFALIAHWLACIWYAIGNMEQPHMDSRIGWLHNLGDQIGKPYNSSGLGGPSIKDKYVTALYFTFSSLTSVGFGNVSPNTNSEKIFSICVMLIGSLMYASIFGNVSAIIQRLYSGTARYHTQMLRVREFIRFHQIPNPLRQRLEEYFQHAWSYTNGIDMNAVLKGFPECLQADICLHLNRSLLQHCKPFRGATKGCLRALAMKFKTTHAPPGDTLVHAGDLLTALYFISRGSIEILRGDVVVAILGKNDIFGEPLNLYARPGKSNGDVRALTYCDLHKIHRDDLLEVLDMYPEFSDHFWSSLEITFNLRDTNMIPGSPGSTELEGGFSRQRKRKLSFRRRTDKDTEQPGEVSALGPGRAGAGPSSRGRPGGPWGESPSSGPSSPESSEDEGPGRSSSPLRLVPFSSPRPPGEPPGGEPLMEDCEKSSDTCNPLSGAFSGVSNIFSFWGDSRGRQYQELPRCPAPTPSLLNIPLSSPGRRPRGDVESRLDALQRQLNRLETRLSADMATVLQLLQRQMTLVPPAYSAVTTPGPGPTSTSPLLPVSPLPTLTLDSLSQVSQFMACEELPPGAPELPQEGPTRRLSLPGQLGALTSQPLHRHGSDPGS
row,SMILES,"hERG current change (%, negative = inhibition) at 1uM [%]"
1,NC(=[NH2+])SCc1[nH+]cccc1O.[Cl-],12.1
2,CCOc1cc(/C=C2/N=C(c3ccc4c(c3)OCO4)OC2=O)ccc1OC(C)=O,7.12
3,Cc1ccc(S(=O)(=O)N2CCCC2)cc1C(=O)N1CCC(C)CC1,7.56
4,O=C(CC(c1ccco1)C1CCCCC1=O)c1ccco1 (centres unmarked),10
5,O=S(=O)(Nc1cccc(Oc2ccc(Cl)cc2)n1)c1ccc(F)cc1,7.05
6,COc1ccc(C2=NOC(C(=O)NCc3ccco3)C2)cc1 (centres unmarked),-5.25
7,CCOC(=O)N1CCC(NC(=O)CC(NS(=O)(=O)c2ccc(C)cc2)c2ccco2)CC1 (centres unmarked),5.99
8,NS(=O)(=O)c1ccc(CCNC(=O)c2cnc(Cl)c(Cl)c2)cc1,10.8
9,Cc1nnc(NC(=O)CC(NC(=O)C(F)(F)F)c2ccccc2)s1 (centres unmarked),12.3
10,CC(C)OC(=O)c1cc2c(ccn2C)n1CC(=O)N(Cc1ccccc1)c1ccc(F)cc1,-1.23
11,CCSc1nc2ccccc2c(=O)n1C1CCOC(C)(C)C1 (centres unmarked),9.41
12,O=C(O)C1CCCCC1C(=O)Nc1ccc2c(c1)OCO2 (centres unmarked),14.3
13,Cc1ccc(S(=O)(=O)N2[C@@H](c3ccc(Cl)cc3)C(C(=O)O)=CC[C@H]2c2ccc3c(c2)OCO3)cc1,13.9
14,CNC(=O)C1Cc2ccccc2CN1S(=O)(=O)c1cccs1 (centres unmarked),6.54
15,O=C(NCCSCc1ccco1)c1ccc(CN2CCOCC2)cc1,16.8
16,Cc1ccc(OCC(=O)Nc2ccc(S(=O)(=O)Nc3ccccn3)cc2)cc1,29.2
17,Cc1cccc(OCc2nc(-c3ccc(Br)o3)no2)c1,1.97
18,O=C1OCCC1Sc1nc2ccccc2s1 (centres unmarked),6.05
19,COc1ccc(CN2CCSCC2)cc1O,11.7

row,SMILES,"hERG current change (%, negative = inhibition) at 1uM [%]"
1,O=[N+]([O-])c1ccc(N2CCN(CCO)CC2)cc1Sc1nc2ccccc2[nH]1,0.192
2,O=C(O)CNC(=O)c1ccc2c(c1)OCCO2,5.03
3,N#C/C(=C\c1c(Oc2ccccc2Cl)nc2ccccn2c1=O)C(=O)NC1CCS(=O)(=O)C1 (centres unmarked),14.6
4,Cc1ccc(C23CC4CC(CC(C(=O)NN)(C4)C2)C3)cc1,13
5,NC(=O)CN1CCN(S(=O)(=O)c2ccc(Br)cc2)CC1,14.2
6,COc1ccc(CN2CC(C(=O)NCc3ccccn3)CC2=O)cc1 (centres unmarked),1.04
7,Cc1cc(C(=O)NCc2nc(-c3ccccc3)no2)ccc1[N+](=O)[O-],16.9
8,CC(C)N(c1ccccc1)c1ccc(NC(=O)COC(=O)CCN2C(=O)c3cccc([N+](=O)[O-])c3C2=O)cc1,6.42
9,[O-][n+]1c2ccccc2c2n1CCN1CCOC21c1ccc(Cl)cc1 (centres unmarked),-11.2
10,COc1cc2cnc(-c3ccccc3)c(-c3ccc(C#N)cc3)c2cc1OC,16.7
11,C/C(=N\NC(=O)c1ccccc1F)c1ccc(C#N)cc1,0.19
12,O=C(CSc1ccccn1)Nc1nncs1,4.82
13,COc1cccc(C(=O)Nc2ccc(NC(=O)c3ccco3)nc2)c1,8.96
14,CCCCOc1ccc(C(=O)Oc2cc(C)[nH]c(=O)c2[N+](=O)[O-])cc1,13.4
15,O=C1c2ccccc2C(=O)N1OS(=O)(=O)c1ccccc1,11.8
16,COc1ccc2oc(C(=O)Nc3nc4ccccc4[nH]3)c(C)c2c1,9.68
17,Cc1cc(C(=O)C(C)Cl)c(C)n1Cc1ccco1 (centres unmarked),9.13
18,Cc1ccc(S(=O)(=O)/N=C(/Nc2cccc(O)c2)c2ccccc2)cc1,6.94
19,CN(C)C(CNS(=O)(=O)c1ccc(Br)cc1)c1cccnc1 (centres unmarked),-3.26

row,SMILES,"hERG current change (%, negative = inhibition) at 1uM [%]"
1,Cc1ccc(S(=O)(=O)N2CCCC(c3nnc4n3-c3ccccc3SC4)C2)cc1 (centres unmarked),-40.4
2,Cc1cccc(-n2c(C)cc(/C=N/NC(N)=S)c2C)c1,-8.61
3,CSCCC(=O)N1CCCC(N(C)CCc2ccccc2)C1 (centres unmarked),-27.3
4,NS(=O)(=O)c1ccc(NC(=O)COC(=O)c2ccc([N+](=O)[O-])s2)cc1,11.4
5,CCc1ccc(OC)c(S(=O)(=O)Nc2ccccc2C)c1,6.02
6,COc1ccc(C)cc1Nc1n[n+](C)c(-c2c3ccccc3cc3ccccc23)s1.[Cl-],9.85
7,CCOc1cc(C(=O)Nc2cc3c(cc2N2CCOCC2)n(C)c(=O)n3C)cc(OCC)c1OCC,9.01
8,CCOC(=O)/C(C#N)=C1/SC(CC)C(=O)N1c1ccc(C)cc1 (centres unmarked),-0.132
9,O=C(NCC1CC1)[C@@H]1C[C@H]1[C@@H](NP(=O)(c1ccccc1)c1ccccc1)c1ccccc1,4.98
10,c1ccc(SCCN2CCc3ccccc3C2)cc1,10.6
11,COC(=O)c1cc(NC(=S)N2CCN(c3ccccn3)CC2)cc(C(=O)OC)c1,0.17
12,Cc1ccc(NC(=O)c2ccc3c(c2)OCCO3)nc1,17.2
13,Cc1cccc(C)c1NC(=O)CSc1nc(N2CCOCC2)nc(N2CCOCC2)n1,13.8
14,CC(O)(CS(=O)(=O)Cc1ccccc1)c1ccccc1Cl (centres unmarked),17.3
15,Oc1ccccc1CN(Cc1ccco1)CC(O)COCc1ccc(Cl)cc1 (centres unmarked),13.1
16,Cc1cccc(Nc2c([N+](=O)[O-])c(=O)oc3ccccc23)c1,2.85
17,C/C(=N\Nc1ccc([N+](=O)[O-])cc1[N+](=O)[O-])c1ccc(-n2nncc2C(C)(C)C)cc1,7.47
18,O=C(NCCCN1CCOCC1)C(=O)NCc1ccccc1,-1.08

# Reference: PMC4336329 (PLoS ONE, 2015)
